Test results as given in PubChem BioAssay AID504333 (National Center for Advancing Translational Sciences (NCATS), 2011).
In all, about 360,000 compounds went through this assay and about 16,000 (4.4%) were called active. Inconclusive means that the source gave no clear call. Such entries were picked first, then a sample of the others. Calls follow the shape of the dose curve; as a rule, active = well fitted inhibition curve with a large enough effect; inconclusive = small, poorly fitted or top-dose-only effect; inactive = no such curve, though single readings can be large or run the other way. Where the call is inconclusive, the potency comes from a doubtful curve fit.

target: Bromodomain adjacent to zinc finger domain protein 2B (Homo sapiens) (UniProt Q9UIF8); assay: qHTS Assay for Inhibitors of BAZ2B; conditions: AlphaScreen BAZ2B-H3K14Ac peptide displacement; series mostly up to 114 µM; also: nearly all actives have a fitted effect of over 60% in size
Method in brief: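 Complex of BAZ2B and biotin-H3K14Ac (50 nM apiece) forms over 30 min at RT, then faces library compounds up to 110 uM for another 30 min; AlphaScreen beads added, 20 min dark incubation, luminescence read.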
Potency is read from the fitted curve at half-maximal effect; tags tell the direction and shape of the fitted curve.

Chain of UniProt Q9UIF8 (Q9UIF8 whole entry, looked up, the tested form may be a part): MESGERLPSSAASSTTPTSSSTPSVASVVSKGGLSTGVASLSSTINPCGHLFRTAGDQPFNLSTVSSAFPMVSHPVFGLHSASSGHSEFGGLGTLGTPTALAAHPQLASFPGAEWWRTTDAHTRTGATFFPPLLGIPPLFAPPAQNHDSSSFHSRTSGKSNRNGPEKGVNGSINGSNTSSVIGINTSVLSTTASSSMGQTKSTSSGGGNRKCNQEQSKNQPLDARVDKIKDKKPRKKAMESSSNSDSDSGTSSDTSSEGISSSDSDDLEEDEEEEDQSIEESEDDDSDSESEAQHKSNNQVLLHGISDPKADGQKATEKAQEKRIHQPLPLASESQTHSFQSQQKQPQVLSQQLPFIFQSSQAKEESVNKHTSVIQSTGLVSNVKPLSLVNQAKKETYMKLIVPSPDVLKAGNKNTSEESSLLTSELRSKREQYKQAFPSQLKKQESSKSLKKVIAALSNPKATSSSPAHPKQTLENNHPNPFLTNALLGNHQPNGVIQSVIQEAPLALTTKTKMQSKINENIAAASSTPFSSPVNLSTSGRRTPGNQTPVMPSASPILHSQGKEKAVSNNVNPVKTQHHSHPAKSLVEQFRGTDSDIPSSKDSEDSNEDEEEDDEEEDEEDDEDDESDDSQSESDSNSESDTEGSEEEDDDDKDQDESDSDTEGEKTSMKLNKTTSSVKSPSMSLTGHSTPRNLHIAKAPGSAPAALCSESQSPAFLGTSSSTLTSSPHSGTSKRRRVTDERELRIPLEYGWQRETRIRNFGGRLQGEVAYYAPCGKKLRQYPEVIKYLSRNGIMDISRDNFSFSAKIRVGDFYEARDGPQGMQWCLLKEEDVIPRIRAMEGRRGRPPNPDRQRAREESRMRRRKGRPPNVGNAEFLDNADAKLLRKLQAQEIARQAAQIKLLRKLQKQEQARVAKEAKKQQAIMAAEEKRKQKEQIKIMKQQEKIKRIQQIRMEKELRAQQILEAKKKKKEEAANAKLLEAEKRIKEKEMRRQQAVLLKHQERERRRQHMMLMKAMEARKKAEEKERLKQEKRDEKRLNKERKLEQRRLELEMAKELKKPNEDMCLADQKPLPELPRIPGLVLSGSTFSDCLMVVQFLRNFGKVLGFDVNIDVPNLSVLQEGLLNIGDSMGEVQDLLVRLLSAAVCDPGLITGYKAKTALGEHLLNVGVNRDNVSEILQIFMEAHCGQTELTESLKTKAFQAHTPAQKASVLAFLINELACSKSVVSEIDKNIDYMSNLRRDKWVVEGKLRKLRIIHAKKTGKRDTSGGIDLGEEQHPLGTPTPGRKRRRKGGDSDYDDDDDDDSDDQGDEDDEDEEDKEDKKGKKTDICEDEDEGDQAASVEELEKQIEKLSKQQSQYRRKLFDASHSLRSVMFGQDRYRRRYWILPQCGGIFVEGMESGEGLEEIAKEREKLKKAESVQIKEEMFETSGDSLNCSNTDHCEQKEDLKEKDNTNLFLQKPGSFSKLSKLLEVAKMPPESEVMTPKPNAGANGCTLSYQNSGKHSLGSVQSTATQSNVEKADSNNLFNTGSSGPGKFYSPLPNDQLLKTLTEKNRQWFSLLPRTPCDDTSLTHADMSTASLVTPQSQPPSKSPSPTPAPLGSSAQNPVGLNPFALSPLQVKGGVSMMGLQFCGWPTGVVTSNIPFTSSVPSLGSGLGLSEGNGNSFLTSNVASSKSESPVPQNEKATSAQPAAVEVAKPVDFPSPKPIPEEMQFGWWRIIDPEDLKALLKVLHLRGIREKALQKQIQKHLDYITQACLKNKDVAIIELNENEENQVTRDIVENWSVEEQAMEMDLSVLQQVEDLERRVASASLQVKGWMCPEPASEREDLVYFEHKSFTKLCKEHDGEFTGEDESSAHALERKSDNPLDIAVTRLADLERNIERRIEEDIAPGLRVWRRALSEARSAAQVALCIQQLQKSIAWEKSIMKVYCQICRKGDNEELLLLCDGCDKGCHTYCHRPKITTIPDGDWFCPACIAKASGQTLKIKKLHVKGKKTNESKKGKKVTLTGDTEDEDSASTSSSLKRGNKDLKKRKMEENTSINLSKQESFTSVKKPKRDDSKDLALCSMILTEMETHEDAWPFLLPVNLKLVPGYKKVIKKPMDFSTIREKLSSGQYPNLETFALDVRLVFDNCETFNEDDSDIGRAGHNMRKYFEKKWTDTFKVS

| Compound | Potency |
| --- | --- |
| O=C(Nc1nc(-c2ccccc2)cs1)c1ccco1 | inactive |
| COc1ccc2c(c1)CCc1c(C(=O)Nc3c(C)nn(Cc4ccccc4C)c3C)noc1-2 | inactive |
| O=C(N/N=C/c1cccn1-c1ccc([N+](=O)[O-])cc1)C(O)c1ccccc1 (centres undefined) | inconclusive: 50.1 µM [inhibitor, partial curve] |
| COc1ccc(N2CCN(C(=O)COc3ccccc3)CC2)cc1 | inactive |
| Cc1cc(NCCCn2ccnc2)n2nc(C)c(-c3ccc(Cl)cc3)c2n1 | active: 31.6 µM |
| N=c1n(CC(=O)c2ccc([N+](=O)[O-])cc2)c2ccccc2n1Cc1ccccc1 | inconclusive: 89.1 µM [inhibitor, single point] |
| COc1ccc(-c2csc(/C(C#N)=C(\O)CSc3nccn3C)n2)cc1OC | active: 50.1 µM |
| O=C(NC(Cc1c[nH]c2ccccc12)C(=O)Nc1ccc(F)cc1)c1cccs1 (centres undefined) | inconclusive: 50.1 µM [inhibitor, partial curve] |
| O=C(Cn1cnc([N+](=O)[O-])n1)N/N=C/c1cc(Cl)ccc1O | active: 28.2 µM |
| Fc1ccc(Nc2nc(-c3ccncc3)nc3ccccc23)cc1F | inconclusive: 89.1 µM [inhibitor, single point] |
| O=[N+]([O-])c1ccc(SCCc2ccncc2)cc1 | active: 50.1 µM |
| CC(C)[C@H](NC(=O)N1c2ccccc2NC(=O)[C@@H]1C(C)C)C(=O)N[C@H](Cc1ccccc1)C(=O)O | inactive |
| O=S(=O)(c1ccccc1)c1nnn2c1nc(NCc1ccc(F)cc1)c1sccc12 | inconclusive: 89.1 µM [inhibitor, single point] |
| Cc1ccc(CN2C(=O)N/C(=C/c3cc(C)n(-c4ccccn4)c3C)C2=O)cc1 | inactive |
| COc1ccc(CC(=O)N/N=C(\C)c2cccs2)cc1 | inactive |
| O=[N+]([O-])c1ccc(-[n+]2nc(-c3ccccc3)nn2-c2ccccc2)cc1 | inactive |
| Cc1noc(NS(=O)(=O)c2ccc(NC(=O)c3cc(F)c(F)c(F)c3F)cc2)c1C | inactive |
| COc1cccc(N2CCN(c3ncnc4c3nc3n4CCCCC3)CC2)c1 | inconclusive: 50.1 µM [inhibitor, partial curve] |
| Cc1oc(-c2ccc(Cl)cc2)nc1CS(=O)CC(=O)N1CCN(c2cccc(C(F)(F)F)c2)CC1 (centres undefined) | inactive |
| Cc1c(O)ccc(/C(Cc2ccc3ccccc3n2)=N\N)c1O | inconclusive: 56.2 µM [inhibitor, partial curve] |
| Cc1ccc(C)n1NC(=O)c1ccccc1[N+](=O)[O-] | inconclusive: 79.4 µM [inhibitor, single point] |
| Cc1cccc(C)c1NC(=O)NCCc1c[nH]c2ccccc12 | inconclusive: 79.4 µM [inhibitor, partial curve] |
| O=c1nc(-c2ccccc2)c2ccccc2[nH]1 | inactive |
| CN(C)S(=O)(=O)c1cc(NC(=O)CN2CCN(c3ccc(O)cc3)CC2)ccc1Cl | inconclusive: 79.4 µM [inhibitor, single point] |
| Cc1cc2ccccc2n1CCNC(=O)c1ccc(Br)o1 | inconclusive: 50.1 µM [inhibitor, partial curve] |

| Compound | Potency |
| --- | --- |
| Cn1cc(CNCc2cnc3ccccn23)c(-c2ccc(Oc3ccccc3)cc2)n1 | inconclusive: 79.4 µM [inhibitor, single point] |
| N#CC1=C(c2ccccc2)/C(=C/c2ccccc2)OC1=O | active: 22.4 µM |
| COc1cc(CNc2ccc(N3CCCC3)cc2)ccc1OCc1ccccc1F | active: 25.1 µM |
| O=[N+]([O-])c1cccc(-c2csc(N/N=C/c3cccc(O)c3)n2)c1 | inconclusive: 25.1 µM [inhibitor, partial curve] |
| N#Cc1nc(Cc2cccc3ccccc23)oc1NCCN1CCCCC1 | active: 79.4 µM |
| Cc1cccc(N2CCN(Cc3ccc(Br)o3)CC2)c1C | inconclusive: 89.1 µM [inhibitor, single point] |
| Cc1cccc(-n2cc(-c3ccccc3)c3c(NN4CCOCC4)ncnc32)c1 | inconclusive: 35.5 µM [inhibitor, partial curve] |
| CCOc1ccc(NC(=O)Nc2cccn(Cc3ccccc3)c2=O)cc1 | active: 39.8 µM |
| CC1CCN(C(=O)c2ccc3c(=O)n4c(nc3c2)CCCCC4)CC1 | inconclusive: 89.1 µM [inhibitor, single point] |
| CSC1=NS(=O)(=O)c2c(C)nn(C)c2S1 | active: 50.1 µM |
| CC1(C(=O)c2ccccc2)C2c3c(ccc4ccccc34)OC(=O)C21C(=O)N1CCOCC1 (centres undefined) | inconclusive: 79.4 µM [inhibitor, single point] |
| Cc1noc(-c2ccc(-c3noc(-c4cccc(F)c4)n3)cc2)n1 | inactive |
| O=C(C1COc2ccccc2O1)N1CCN(c2nc3ccc(F)cc3s2)CC1 (centres undefined) | inactive |
| COCCCNCCOCCOc1ccccc1-c1ccccc1 | active: 50.1 µM |
| O=c1cc(-c2ccccc2Cl)oc2c(NS(=O)(=O)c3cc(Cl)cc(Cl)c3O)ccc(O)c12 | active: 50.1 µM |
| CSc1ccccc1NC(=O)C1=CC(c2cccs2)=NS(=O)(=O)N1C | inactive |
| CCOc1cc(N2CCOCC2)c(OCC)cc1NC(=O)COc1cccc(CC)c1 | inconclusive: 28.2 µM [inhibitor, full curve] |
| CCN(CC(=O)Nc1ccc2c(c1)OCCO2)C(=O)/C=C/c1ccc([N+](=O)[O-])cc1 | inactive |
| COc1ccc(N2Cc3cccc(C(=O)Nc4cc(C)cc(C)c4)c3C2=O)cc1 | inconclusive: 31.6 µM [inhibitor, full curve] |
| Cc1cccc(NC(=S)NC(C)C(c2ccccc2)N2CCN(C)CC2)c1C (centres undefined) | inconclusive: 89.1 µM [inhibitor, single point] |
| O=C(Nc1ccc(O)cc1C(=O)O)c1cccc(Br)c1 | inconclusive: 89.1 µM [inhibitor, single point] |
| C/C(=N\N=C1/SC(CC(=O)O)C(=O)N1c1ccccc1)c1ccc(C)cc1 (centres undefined) | inconclusive: 89.1 µM [inhibitor, single point] |
| Cc1ccc([N+](=O)[O-])c(OCCN2C(=O)NC(C)(C)C2=O)c1 | inconclusive: 100 µM [inhibitor, single point] |
| CCn1c(=O)c([N+](=O)[O-])c(N2CCN(Cc3ccc4c(c3)OCO4)CC2)c2ccccc21 | inconclusive: 14.1 µM [inhibitor, full curve] |
| Oc1[nH]c2ccccc2c1N=Nc1nc(Nc2ccccc2)nc(N2CCOCC2)n1 | inconclusive: 35.5 µM [inhibitor, partial curve] |

| Compound | Potency |
| --- | --- |
| Cc1ccc(CO/N=C/c2c(O)cc(C)oc2=O)cc1 | inconclusive: 44.7 µM [inhibitor, partial curve] |
| COc1ccc(OC)c(CNC(=O)c2c3c(nc4ccccc24)C(=O)N(C2CCCCC2)C3)c1 | inactive |
| N#Cc1ccc(OCC(=O)n2cc(C(=O)c3cc(Cl)cc(Cl)c3O)cn2)cc1 | inactive |
| O=C(NC1CCCCC1)NC1CCN(CC(=O)N2CCOCC2)CC1 | inconclusive: 89.1 µM [inhibitor, single point] |
| CC(Oc1ccc(C#N)cc1)C(=O)c1ccc(F)c(F)c1 (centres undefined) | inactive |
| CC(C)(C)NC(=O)CN(C(=O)c1snc(C(=O)NC2CCCCC2)c1N)c1ccc(F)cc1 | inactive |
| Cc1ccc(-c2csc3ncn(-n4c(C)ccc4C)c(=O)c23)o1 | inconclusive: 79.4 µM [inhibitor, single point] |
| Cc1[nH]c2ccccc2c1/C=N/NC(=O)Cc1cccs1 | inconclusive: 89.1 µM [inhibitor, single point] |
| O=C(CC1NCCNC1=O)Nc1ccc(Oc2ccccc2)cc1 (centres undefined) | inconclusive: 39.8 µM [inhibitor, single point] |
| CCC(=O)NC(Nc1cc(C)ccn1)(C(F)(F)F)C(F)(F)F | inconclusive: 8.91 µM [inhibitor, single point] |
| C=Cc1ccc(Cn2c(C(=O)O)c(CNC3CCCC3)c3ccc(C)cc32)cc1 | inconclusive: 89.1 µM [inhibitor, single point] |
| CN(C)S(=O)(=O)c1ccc2c(c1)N(CC(=O)Nc1ccc(OC(F)(F)F)cc1)C(=O)CS2 | inactive |
| CCOC(=O)c1c(S(=O)(=O)N2CCC(C(=O)NCc3ccc(F)cc3)CC2)c(C)n(C)c1C | inactive |
| O=C(Nc1ccc(F)cc1)Nc1nnc(-c2ccncc2)s1 | inconclusive: 79.4 µM [inhibitor, single point] |
| COC(=O)c1c(Cl)c2n3ccccc3c(C)c(-c3ccccc3)c-2c1C(=O)OC | inconclusive: 31.6 µM [inhibitor, full curve] |
| CCc1nnc(NC(=O)c2ccc(S(=O)(=O)N3CCCC(C)C3)cc2)o1 (centres undefined) | active: 89.1 µM |
| COCCCN(C(=S)Nc1ccc(C)cc1Cl)C(C)c1ccncc1 (centres undefined) | inactive |
| COc1ccc(OCCN2CCN(C3CC(=O)N(CCC(C)C)C3=O)CC2)cc1 (centres undefined) | inactive |
| N#CCCN(/N=C/c1cccnc1)C1=NS(=O)(=O)c2ccccc21 | inconclusive: 89.1 µM [inhibitor, single point] |
| CCCSc1nnc(-c2cnn(-c3ccccc3)c2-n2cccc2)n1C | inactive |
| COc1ccc2sc(-c3ccc(N(C)C)cc3)c(C#CCO)c2c1 | active: 89.1 µM |
| CCOc1ccc(NC(=O)COC(=O)Cc2ccc(S(=O)(=O)N3CCOCC3)s2)cc1 | inconclusive: 56.2 µM [inhibitor, partial curve] |
| COCc1nnc(NC(=O)c2ccc(S(=O)(=O)N(C)C3CCCCC3)cc2)o1 | inconclusive: 89.1 µM [inhibitor, single point] |
| O=C(O)c1cccc(S(=O)(=O)NNc2ccccc2C(F)(F)F)c1 | active: 50.1 µM |
